Whole data set: some 33,000 sequences, median “E-score (-0.5 to 0.5)” near -0.012, cut for the highest 2% near 0.27. Some of the results follow.
Target: T1, Vhr1 (UniProt P40522)
T1 sequence: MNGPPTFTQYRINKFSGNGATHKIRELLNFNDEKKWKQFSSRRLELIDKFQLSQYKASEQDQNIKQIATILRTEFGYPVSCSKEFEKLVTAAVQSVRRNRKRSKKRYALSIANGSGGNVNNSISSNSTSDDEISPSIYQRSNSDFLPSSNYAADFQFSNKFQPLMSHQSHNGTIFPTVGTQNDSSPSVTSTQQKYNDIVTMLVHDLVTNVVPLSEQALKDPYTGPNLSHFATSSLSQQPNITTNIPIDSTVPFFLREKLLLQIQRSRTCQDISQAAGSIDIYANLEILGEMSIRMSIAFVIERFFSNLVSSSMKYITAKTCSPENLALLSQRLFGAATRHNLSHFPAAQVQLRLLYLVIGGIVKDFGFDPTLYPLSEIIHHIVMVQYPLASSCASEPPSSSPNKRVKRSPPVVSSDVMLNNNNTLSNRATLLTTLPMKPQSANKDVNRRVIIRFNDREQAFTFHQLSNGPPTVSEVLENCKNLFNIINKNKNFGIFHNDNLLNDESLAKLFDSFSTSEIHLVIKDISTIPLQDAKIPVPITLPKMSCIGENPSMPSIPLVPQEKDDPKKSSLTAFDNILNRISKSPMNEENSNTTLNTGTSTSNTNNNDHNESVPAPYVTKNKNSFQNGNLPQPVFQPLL
Experiment: PBM E-score (8-mer binding enrichment) (E-score (-0.5 to 0.5)); higher = stronger / more preferred TF binding; most listed sequences are background and not binding sites
Details: protein concentration: 200 nM; construct: GST-full length
Protocol: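 Universal 'all 10-mer' protein binding microarrays (Agilent AMADID 015681) probed with GST-tagged S. cerevisiae TFs (full-length or DBD) made by in vitro transcription/translation (PURExpress), about 100-200 nM. Bound TF was detected with fluorescent anti-GST. Each ungapped 8-mer (which stands for itself and its reverse complement) is scored by the PBM enrichment score (E-score), a modified Wilcoxon-Mann-Whitney statistic from -0.5 to +0.5, computed with the Universal PBM Analysis Suite. Scale: above 0.35 generally sequence-specific binding.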

Compared with CCAAATAC, ACGCCGTA is lower in “PBM E-score” value: -0.0361 for the first, -0.0679 for the second.

Compared with GGATGTTA, CTCGGAAA is lower in “PBM E-score” value: -0.00061 for the first, -0.104 for the second.

Compared with CTTGCAGA, AGGGGTAT is lower in “PBM E-score” value: -0.0204 for the first, -0.0881 for the second.

Compared with CTATAATA, CAAGCATA is higher in “PBM E-score” value: -0.112 for the first, 0.104 for the second.

First: GTCGCGGA
Second: AACATAGC
The “PBM E-score” value of the first is higher: 0.00363 for the first, -0.0539 for the second.

Going from CACATCCA to GCATAGGC, the “PBM E-score” value falls from 0.147 to -0.193.

First: CTGCGGAA
Second: AGCGCGAA
The “PBM E-score” value of the first is lower: -0.0513 for the first, 0.178 for the second.

First: GATATTCA
Second: AATTAGCT
The “PBM E-score” value of the first is higher: -0.0177 for the first, -0.0274 for the second.

Going from GCCCCCCC to CTCTCACC, the “PBM E-score” value rises from -0.238 to 0.168.

First: ACAGCCCT
Second: CGACATCG
The “PBM E-score” value of the first is lower: -0.25 for the first, -0.113 for the second.

Compared with GTTATCTA, GACCAGCA is higher in “PBM E-score” value: -0.143 for the first, 0.0649 for the second.

Compared with AACACCGT, TCCTTGAA is lower in “PBM E-score” value: -0.0339 for the first, -0.181 for the second.

Going from AGGGTTCG to TATTGACA, the “PBM E-score” value rises from -0.179 to -0.128.

Going from ACGGATAT to CCAGGTCC, the “PBM E-score” value falls from 0.114 to -0.159.

First: GTTGGGTA
Second: GGAGGCTA
The “PBM E-score” value of the first is higher: 0.0584 for the first, -0.0627 for the second.

Compared with CCCAAGGC, ATAATCGC is higher in “PBM E-score” value: -0.0451 for the first, 0.0411 for the second.

Compared with ACATTAAG, CCCGCCGA is higher in “PBM E-score” value: -0.134 for the first, 0.00185 for the second.

First: ACCGGTTA
Second: ACCACGGG
The “PBM E-score” value of the first is lower: -0.279 for the first, 0.0425 for the second.

Compared with AATTTTAC, GTGTTATA is higher in “PBM E-score” value: -0.0974 for the first, 0.0758 for the second.

First: CCAAAAAG
Second: GCTTCGGA
The “PBM E-score” value of the first is lower: -0.0555 for the first, -0.0412 for the second.

Compared with GATTATGA, CAAGTTCA is lower in “PBM E-score” value: 0.163 for the first, 0.0736 for the second.

Going from CCGTTCGA to CGCGGCTC, the “PBM E-score” value rises from -0.00076 to 0.278.

Going from CTGCAGAA to CATGGCGG, the “PBM E-score” value rises from 0.0335 to 0.154.

First: ATACAGAA
Second: CCGTGGCG
The “PBM E-score” value of the first is lower: 0.169 for the first, 0.189 for the second.

First: CCTTAAAG
Second: AGCTGGTG
The “PBM E-score” value of the first is lower: -0.337 for the first, 0.116 for the second.

Compared with CATTTAGG, CATAACCC is higher in “PBM E-score” value: -0.277 for the first, 0.00324 for the second.

Compared with CTTGCAAA, GAATTGTA is lower in “PBM E-score” value: -0.0346 for the first, -0.1 for the second.

First: AGAAACAA
Second: CAGATGCA
The “PBM E-score” value of the first is higher: 0.0133 for the first, -0.0339 for the second.

First: AACCACGA
Second: AGTTGCGG
The “PBM E-score” value of the first is higher: 0.196 for the first, 0.125 for the second.

Compared with ACGCCCTA, AGCCGTGA is higher in “PBM E-score” value: -0.206 for the first, 0.134 for the second.

First: ACAGTTAA
Second: ATCCAGAC
The “PBM E-score” value of the first is higher: 0.0518 for the first, -0.0123 for the second.

Going from GCACCAAA to CTTAGTAC, the “PBM E-score” value rises from -0.15 to 0.107.

Going from AGAGGTGA to AGTTAATC, the “PBM E-score” value rises from 0.031 to 0.126.

Compared with AGTCAACG, ATGGAACG is lower in “PBM E-score” value: 0.278 for the first, -0.11 for the second.

First: GAAAACAC
Second: CCAAGTTC
The “PBM E-score” value of the first is lower: -0.105 for the first, -0.0409 for the second.

Going from GTGTTCCA to CGGCCCTA, the “PBM E-score” value falls from 0.0405 to -0.135.

Compared with GCCGCTCA, GTAAACTA is higher in “PBM E-score” value: -0.231 for the first, 0.0822 for the second.

Compared with GCACCAGC, CAACGAAA is lower in “PBM E-score” value: -0.0344 for the first, -0.0742 for the second.

Compared with ACGGGAGG, GTTAATCA is higher in “PBM E-score” value: -0.13 for the first, 0.296 for the second.

First: ATTAGGAC
Second: TCTTACAA
The “PBM E-score” value of the first is lower: -0.173 for the first, -0.12 for the second.

Compared with ATCGCATG, AATGTGGC is lower in “PBM E-score” value: 0.156 for the first, 0.105 for the second.

Going from AAGATACT to ACCCTCAG, the “PBM E-score” value falls from 0.0322 to -0.0173.

Compared with GCGAGCGA, CGTATAAG is lower in “PBM E-score” value: 0.0975 for the first, -0.0703 for the second.
